Measured values as given in PubChem BioAssay AID540317 (National Center for Advancing Translational Sciences (NCATS), 2011).
About 2,200 (0.56%) of roughly 390,000 compounds were called active. This list was built around the results that the source calls inconclusive (neither active nor inactive); the mix of calls is not that of the screen. The call rests on the fitted dose curve; in most records, active means well fitted inhibition curve with a large enough effect; inconclusive means small, poorly fitted or top-dose-only effect; inactive means no such curve, though single readings can be large or run the other way. Potencies beside an inconclusive call are fits to weak or partial responses and may not hold up.

molecular target: Chromobox protein homolog 1 (Homo sapiens) (UniProt P83916); assay: HTS for Inhibitors of HP1-beta Chromodomain Interactions with Methylated Histone Tails; details: AlphaScreen HP1-beta / biotin-H3K9me3 peptide binding; series mostly up to 114 µM; activity change, negative = inhibition: at the top concentration; further: nearly all actives have a fitted effect of over 70% in size
Sequence of UniProt P83916 (P83916 whole entry, looked up): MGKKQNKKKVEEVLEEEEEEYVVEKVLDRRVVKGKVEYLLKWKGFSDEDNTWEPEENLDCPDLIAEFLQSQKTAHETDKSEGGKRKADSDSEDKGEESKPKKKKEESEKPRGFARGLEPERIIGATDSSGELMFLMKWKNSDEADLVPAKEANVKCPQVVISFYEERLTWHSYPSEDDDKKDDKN
Method in brief: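 HP1-beta protein (50 nM final) preincubated 30 min at room temperature with biotinylated H3(1-18)K9me3 peptide (50 nM) in PBS pH 7.4, 0.01% Tween-20, then compound added for 30 min. AlphaScreen streptavidin donor/nickel chelate acceptor beads (10 ug/mL final), 30 min dark, luminescence read.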
Potency means the concentration at half of the fitted maximal effect; tags describe the fitted curve by direction and shape.

Row | SMILES | Potency | activity change, negative = inhibition
1 | COc1cccc(Nc2ccc(N3CCCCC3)cc2)c1OC | active: 31.6 µM | 
2 | CCN1C(=O)/C(=C/c2ccc(N3CCCC3)cc2)NC1=S | inconclusive: 31.6 µM [inhibitor, full curve, poor fit] | 
3 | CC1CN(C(=O)COC(=O)c2cc3ccccc3cc2O)CC(C)O1 (stereo not drawn) |  | inactive: 5.19%
4 | Nc1scc2c(C(=O)N/N=C/c3ccc(Cl)cc3)nn(-c3ccccc3)c(=O)c12 |  | inactive: -23.5%
5 | Cc1ccc(-c2csc3ncn(CC#N)c(=O)c23)cc1C | inconclusive: 44.7 µM [inhibitor, partial curve] | 
6 | COC(=O)[C@@]1(C)[C@H]2C(=O)N(Cc3ccccc3)C(=O)[C@H]2[C@H]2CN=C(SCc3ccccc3)N21 |  | inactive: 25.9%
7 | COc1ccc(OC)c(Nc2nc(-c3sc(NC(=O)C(C)(C)C)nc3C)cs2)c1 | inconclusive: 35.5 µM [inhibitor, partial curve] | 
8 | Cc1cccc(Nc2n[nH]c(=S)s2)c1C | inconclusive: 28.2 µM [inhibitor, single point] | 
9 | O=C(CCSCc1cccc(F)c1)NCCc1ccccc1 | inconclusive: 89.1 µM [inhibitor, single point] | 
10 | CC1CN(C(=O)C(C)N2CCN(c3cccc(Cl)c3)CC2)CC(C)O1 (stereo not drawn) | inconclusive: 39.8 µM [inhibitor, single point] | 
11 | S=c1[nH]nc(COc2ccc(Cl)cc2)n1Cc1ccco1 | inconclusive: 50.1 µM [inhibitor, partial curve] | 
12 | Cc1ccccc1Nc1nnc(SCC(=O)Nc2ccccc2[N+](=O)[O-])s1 | inconclusive: 44.7 µM [inhibitor, partial curve] | 
13 | COc1ccc(Cl)cc1NC(=O)CSc1nnc(C2CC2)n1C | inconclusive: 89.1 µM [inhibitor, single point] | 
14 | N#Cc1nc(-c2cccs2)oc1N1CCN(Cc2ccccc2)CC1 | inconclusive: 17.8 µM [inhibitor, full curve, poor fit] | 
15 | N#CCCN1CCN(C(=S)c2ccc(-c3ccc(Cl)c(Cl)c3)o2)CC1 | inconclusive: 14.1 µM [inhibitor, full curve, poor fit] | 
16 | COc1ccc(NC(=O)Nc2ccc(Cc3ccncc3)cc2)c(OC)c1 | inconclusive: 35.5 µM [inhibitor, partial curve, poor fit] | 
17 | O=[N+]([O-])c1cccc(-c2nc3ccccc3s/c2=N/O)c1 | inconclusive: 35.5 µM [inhibitor, partial curve] | 
18 | CC(C)COc1cccc(C(=O)Nc2cc(S(=O)(=O)N3CCOCC3)ccc2N2CCCC2)c1 | inconclusive: 39.8 µM [inhibitor, single point] | 
19 | COc1ccc(CCNC(=O)CN(C)S(=O)(=O)c2ccc(OC)cc2)cc1 |  | inactive: 14.5%
20 | FC(F)(F)c1ccccc1NC(=S)Nn1cnnc1 | inconclusive: 25.1 µM [inhibitor, partial curve] | 
21 | COc1ccccc1N1CCN(/N=C/c2ccc(Cl)c([N+](=O)[O-])c2)CC1 | inconclusive: 20 µM [inhibitor, full curve] | 
22 | O=C(Nc1ccc(Cl)cc1)Nc1ccccc1CC[N+](=O)[O-] |  | inactive: -7.7%
23 | CC(C)NC(=O)CSc1nnc(-c2ccncc2)n1-c1ccccc1 |  | inactive: 29.9%

Row | SMILES | Potency | activity change, negative = inhibition
24 | COc1ccc(N2CCN(C(=S)Nc3ccc(S(N)(=O)=O)cc3)CC2)cc1 | inconclusive: 12.6 µM [inhibitor, full curve, poor fit] | 
25 | Cc1nn(C)c(-c2n[nH]c(=S)n2-c2ccccc2)c1Cl |  | inactive: 19.3%
26 | Cc1noc(C)c1CSc1nnc(-c2ccccc2)n1N | inconclusive: 44.7 µM [inhibitor, partial curve] | 
27 | Cc1cccc(C(=O)NC(=S)NNC(=O)COc2ccc(Cl)cc2)c1 | inconclusive: 39.8 µM [inhibitor, partial curve, poor fit] | 
28 | CCOc1ccc(/C=N/NC(=O)CN2CCSCC2)cc1 | inconclusive: 56.2 µM [inhibitor, partial curve, poor fit] | 
29 | O=C(NCc1ccc2c(c1)OCO2)C(=S)N1CCOCC1 |  | inactive: 19.4%
30 | CC(=O)N1C(=O)/C(=C2\SC(=S)N(c3c(C)n(C)n(-c4ccccc4)c3=O)C2=O)c2ccccc21 | inconclusive: 28.2 µM [inhibitor, partial curve, poor fit] | 
31 | FC(F)(F)c1cccc(OCCN2CCN(Cc3ccccc3)CC2)c1 | inconclusive: 15.8 µM [inhibitor, full curve, poor fit] | 
32 | CCCC(=O)N1c2ccccc2C(=C2SC(C(=O)OC)=C(C(=O)OC)S2)C(=S)C1(C)C | active: 14.1 µM | 
33 | CCOC(=O)c1c(Nc2ccc(OCC)cc2)nnc(-c2ccccc2)c1-c1ccccc1 | inconclusive: 14.1 µM [inhibitor, partial curve, poor fit] | 
34 | FC(F)Oc1ccc(-c2csc(=Nc3cccnc3)n2CC2CCCO2)cc1 (stereo not drawn) | inconclusive: 31.6 µM [inhibitor, single point] | 
35 | CCn1c(=O)c(C(=O)CN2CCCc3ccccc32)c(N)n(Cc2ccccc2)c1=O | inconclusive: 17.8 µM [inhibitor, partial curve, poor fit] | 
36 | CNC(=O)c1c(C)noc1C |  | inactive: 35.3%
37 | Cc1ccc(C(=O)Nc2nnc(SCC(=O)N3CCCc4ccccc43)s2)cc1 | inconclusive: 39.8 µM [inhibitor, single point] | 
38 | C#CCOc1c(Br)cc(C2C(C(=O)OC)=C(C)NC3=C2C(=O)c2ccccc23)cc1OCC (stereo not drawn) | inconclusive: 14.1 µM [inhibitor, full curve] | 
39 | CCN(CC)S(=O)(=O)c1ccc(OC)c(NC(=O)/C=C/c2ccco2)c1 | inconclusive: 50.1 µM [inhibitor, partial curve] | 
40 | Cc1ccc(-c2nnc(Nc3cccc(Br)c3)c3ccccc23)cc1S(=O)(=O)N1CCN(C)CC1 |  | inactive: 3.02%
41 | C/C(CC(C)C)=N\NS(=O)(=O)c1ccc(C)c([N+](=O)[O-])c1 |  | inactive: -12.2%
42 | Cc1cccc(Nc2nc(-c3ccc(O)c(O)c3)cs2)n1 | inconclusive: 50.1 µM [inhibitor, partial curve, poor fit] | 
43 | Cn1c(NC(=S)Nc2ccccc2)nc2ccccc21 |  | inactive: -16.9%
44 | Cn1cccc1/C=C1\SC(=S)N(NC(=O)c2cccc(Cl)c2)C1=O | inconclusive: 50.1 µM [inhibitor, partial curve] | 
45 | Cc1ccc(-n2nc(-c3ccc(OC(F)(F)F)cc3)cc2N)cc1C | inconclusive: 56.2 µM [inhibitor, single point] | 
46 | CCc1sc(-c2c(C#N)c(N)nc3c2CCCCCC3)cc1[N+](=O)[O-] | inconclusive: 35.5 µM [inhibitor, partial curve] | 

Row | SMILES | Potency | activity change, negative = inhibition
47 | Cc1cc(C)c(S(=O)(=O)ON2C(=O)c3ccccc3C2=O)cc1C | inconclusive: 63.1 µM [inhibitor, single point] | 
48 | COc1ccc(-c2nnc(SCC(=O)NC3CCCc4ccccc43)n2N)cc1 (stereo not drawn) |  | inactive: 21.3%
49 | CC(=O)Nc1ccc(C(=O)N/N=C/c2cccnc2)cc1 |  | inactive: 52.5%
50 | O=C(c1ccco1)N1CCN(S(=O)(=O)c2cccc([N+](=O)[O-])c2)CC1 | inconclusive: 89.1 µM [inhibitor, partial curve, poor fit] | 
51 | COc1ccccc1-c1nnc(SCC(=O)O)n1-c1ccc(C)cc1 |  | inactive: 21.1%
52 | Cc1ccccc1OCC(O)CN1CCN(CC(O)COc2ccccc2C)C(C)C1 (stereo not drawn) | inconclusive: 17.8 µM [inhibitor, full curve] | 
53 | CC(=O)/C(=N/Nc1ccccc1)Sc1nnc(C(O)c2ccccc2)n1-c1ccccc1 (stereo not drawn) |  | inactive: 23.5%
54 | CN1CCN(C(=S)C(=O)Nc2ccc(Br)cc2)CC1 | inconclusive: 3.98 µM [inhibitor, full curve] | 
55 | COc1cc2c(cc1OC)C(C)N(C(=O)c1cccc([N+](=O)[O-])c1)CC2 (stereo not drawn) | inconclusive: 89.1 µM [inhibitor, single point] | 
56 | Cc1ccc2nc(-c3ccc(N4CCOCC4)cc3)c(Nc3ccccc3C)n2c1 | inconclusive: 15.8 µM [inhibitor, full curve] | 
57 | Cc1ccc(-n2ncc(C(=O)NCCN3CCc4ccccc4C3)c2C2CCN(C(=O)OC(C)(C)C)CC2)c(C)c1 | inconclusive: 70.8 µM [inhibitor, partial curve, poor fit] | 
58 | CCOc1ccc(NC(=O)COc2ccccc2)c([N+](=O)[O-])c1 | inconclusive: 25.1 µM [inhibitor, full curve] | 
59 | Cc1ccc(NC(=O)Cc2ccc(-n3cccc3)cc2)c(C)c1 |  | inactive: 8.85%
60 | COc1ccccc1NCC(O)Cn1c2ccccc2c2ccccc21 (stereo not drawn) | inconclusive: 44.7 µM [inhibitor, single point] | 
61 | CCOC(=O)N1CCc2c(sc(NCc3ccc(N(C)C)cc3)c2C(=O)Nc2ccccc2OCC)C1 | inconclusive: 22.4 µM [inhibitor, full curve] | 
62 | Cc1ccccc1CN1CCN(C(=O)c2cccc3ccccc23)CC1 | inconclusive: 15.8 µM [inhibitor, full curve, poor fit] | 
63 | CCc1cccc(-n2nnc(-c3nc(-c4ccc5c(c4)OCO5)no3)c2C)c1 |  | inactive: 44.8%
64 | COc1ccc2c(N)c(C(=O)NN)[nH]c2c1 | inconclusive: 79.4 µM [inhibitor, single point] | 
65 | c1ccc(CSc2nc3ccccc3[nH]2)cc1 |  | inactive: 44.2%
66 | Cc1ccccc1NC(=O)CN1C(=O)C2C3CC(C(Br)C3Br)C2C1=O (stereo not drawn) | inconclusive: 8.91 µM [inhibitor, full curve] | 
67 | CC(C)c1ccc(S(=O)(=O)Nc2cc3c(cc2NCc2ccccc2)n(C)c(=O)n3C)cc1 | inconclusive: 28.2 µM [inhibitor, single point] | 
68 | CCCC(=O)Nc1c(C(=O)N2CCN(c3ccccc3)CC2)oc2ccccc12 |  | inactive: 26.3%
